Out of some 410,000 compounds screened, about 5,000 (1.2%) were called active. Inconclusive means that the source gave no clear call. Such entries were picked first, then a sample of the others. Calls follow the shape of the dose curve; as a rule, active = well fitted inhibition curve with a large enough effect; inconclusive = small, poorly fitted or top-dose-only effect; inactive = no such curve, though single readings can be large or run the other way. Potencies of inconclusive entries are doubtful fits and often do not repeat.
assay: qHTS for Inhibitors of TGF-b; conditions: HepG2 CAGA-GFP TGF-b/SMAD3 reporter, GFP fluorescence, 18 h, TGF-beta stimulated, 500 pg/mL final; series mostly up to 46.1 µM; also: nearly all actives have a fitted effect of over 65% in size
Procedure, shortened: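 Smad-responsive CAGA-GFP expression was quantified in HEPG2 cells exposed to compounds and 500 pg/mL final TGF-beta for 18 h at 37 degrees C; unstimulated wells defined full inhibition.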
Potency is read from the fitted curve at half-maximal effect; tags tell the direction and shape of the fitted curve.

Compound	Potency
Cc1cccc2sc(N(CCCN3CCOCC3)C(=O)CS(=O)(=O)c3ccc(F)cc3)nc12	inactive
CCN(CC)CCNC(=O)Cn1ncc2c3ccccc3n(Cc3ccccc3C)c2c1=O	active: 14.1 µM
COc1ccc(OCC(O)CNC2CCCC2)cc1 (stereo not drawn)	inconclusive: 15.8 µM [inhibitor, single point]
CN1C(=O)C(C)(C)c2cc(S(=O)(=O)NCc3ccc(C(=O)NCc4ccco4)cc3)ccc21	inconclusive: 11.2 µM [inhibitor, partial curve]
O=C1CC(N2CCCc3ccccc32)C(=O)N1c1ccccc1 (stereo not drawn)	inconclusive: 22.4 µM [inhibitor, partial curve, poor fit]
CC(CCc1ccccc1)NC(=O)COC(=O)C(CCC(N)=O)NC(=O)c1ccc(F)cc1 (stereo not drawn)	inactive
CCN(CC)c1ccc(NC(=O)CC2Oc3ccccc3NC2=O)c(C)c1 (stereo not drawn)	inconclusive: 5.62 µM [inhibitor, single point]
Cc1nn2c(=O)cc(COC(=O)c3ccc(F)cc3)nc2s1	inconclusive: 6.31 µM [inhibitor, single point]
CCOc1nc(NCCC2=CCCCC2)nc(N2CCOCC2)n1	inactive
COc1ccc(C(=O)c2cn(Cc3cccc(C)c3)c3cc4c(cc3c2=O)OCCO4)cc1OC	inconclusive: 35.5 µM [inhibitor, single point]
COc1ccc(NC(=O)/C(Cl)=C(/Cl)S(=O)Cc2ccccc2)cn1 (stereo not drawn)	active: 3.98 µM
O=C(NCc1cccnc1)C(=O)NCC(c1ccco1)N1CCOCC1 (stereo not drawn)	inconclusive: 35.5 µM [inhibitor, single point]
CCc1ccc(NC(=O)Cn2nnc(C(=O)Nc3cc(C)ccc3OC)c2N)cc1	inconclusive: 15.8 µM [inhibitor, single point]
O=S(=O)(Nc1ccc(Br)cc1)c1ccc2nc(-c3ccccc3)[nH]c2c1	inconclusive: 35.5 µM [inhibitor, single point]
O=C(CCC1N=C2c3ccccc3N=C(SCc3cccc(F)c3)N2C1=O)NCc1ccc(F)cc1 (stereo not drawn)	inconclusive: 5.01 µM [inhibitor, full curve]
Cc1ccc(CCNC(=O)CN2CCN(Cc3ccc(Cl)cc3)C2=O)cc1	inconclusive: 35.5 µM [inhibitor, single point]
COC(=O)Cn1c(CCS(=O)(=O)c2ccc(C)c(C)c2)nc2ccccc21	inconclusive: 35.5 µM [inhibitor, single point]
CCc1ccc(S(=O)(=O)NCC(O)COc2ccc(OC)cc2)cc1 (stereo not drawn)	inconclusive: 11.2 µM [inhibitor, partial curve]
COc1ccc(NC(=O)c2cc(-c3cc(C)cc(C)c3O)n[nH]2)cc1Cl	inconclusive: 22.4 µM [inhibitor, partial curve, poor fit]
O=C(NC(c1ccccc1)c1ccc2ccccc2n1)C1CCN(CCOc2ccc(Cl)cc2Cl)CC1 (stereo not drawn)	active: 10 µM
COC(=O)c1ccc2nc(-c3ccc(OC)c(OC)c3)c(Cc3ccccc3)n2c1	inconclusive: 28.2 µM [inhibitor, single point]

Compound	Potency
COc1cc(/C=C/C(=O)OCC(=O)N2c3ccccc3NC(=O)C2(C)C)cc(OC)c1OC	inconclusive: 14.1 µM [inhibitor, partial curve, poor fit]
Cc1nnc2c3ccccc3nc(N3CCN(c4cccc(Cl)c4)CC3)n12	inconclusive: 2.24 µM [inhibitor, partial curve, poor fit]
C#CCOCCOCCOCCNc1nc(N2CCN(C(=O)CCCCCCCCCCNC(=O)Cn3cc(CCCCCN)nn3)CC2)nc(N2CCN(C(=O)CCCCCCCCCCNC(=O)[C@@H]([C@H](C)O)n3cc(C)nn3)CC2)n1	inconclusive: 2.82 µM [inhibitor, full curve]
Cc1cccc(-n2ncc3c(Nc4c(C)cc(C)cc4C)ncnc32)c1	inconclusive: 11.2 µM [inhibitor, partial curve, poor fit]
O=C(Oc1ccc(-c2nnco2)cc1)c1cc(S(=O)(=O)N2CCOCC2)ccc1F	inactive
CCOc1ccc(NC2=CC(=O)CC(c3ccco3)C2)cc1 (stereo not drawn)	inconclusive: 3.98 µM [inhibitor, partial curve, poor fit]
Oc1ccc(Nc2nc(-c3ccc(Cl)cc3)nc3ccccc23)cc1	inconclusive: 22.4 µM [inhibitor, single point]
NS(=O)(=O)c1ccc(CNC(=S)Nc2ccc(Cl)c(Cl)c2)cc1	inactive
CC(=O)Oc1ccc(C(=O)Nc2cccc(C(=O)c3ccc(C)c(C)c3)c2)cc1	inconclusive: 25.1 µM [inhibitor, single point]
CN(C(=O)c1cccc(NC(=O)Cc2ccc(NC(=O)C3CCCN(C(=O)c4ccccc4)C3)cc2)c1)C1CCCC1 (stereo not drawn)	inconclusive: 35.5 µM [inhibitor, single point]
Cc1ccc(C(C)NC(=O)CSc2ccc(S(=O)(=O)N3CCOCC3)cn2)cc1C (stereo not drawn)	inconclusive: 35.5 µM [inhibitor, single point]
O=C(CCCCCNC(=O)c1ccccc1)N/N=C/c1ccc(F)cc1	inactive
CC(NC(=O)c1ccc2ccccc2n1)c1ccc(Br)cc1 (stereo not drawn)	inconclusive: 4.47 µM [inhibitor, full curve, poor fit]
Cc1ccc(CC(=O)Nc2ccccc2-c2ccccc2)cc1C	inconclusive: 22.4 µM [inhibitor, single point]
CCCc1cc(=O)n2[nH]c(C)c(-c3ccc(Cl)cc3)c2n1	inconclusive: 17.8 µM [inhibitor, single point]
Cn1cc(S(=O)(=O)N2CCCCCC2)cc1C(=O)N1CCN(c2ccc(Cl)cc2)CC1	inconclusive: 12.6 µM [inhibitor, single point]
CCOC(=O)c1cccc(NC(=O)CC2Oc3ccccc3NC2=O)c1 (stereo not drawn)	inconclusive: 35.5 µM [inhibitor, single point]
CC(NC(=O)COC(=O)c1cc(NS(=O)(=O)c2ccc(Cl)c([N+](=O)[O-])c2)ccc1O)C1CC2CCC1C2 (stereo not drawn)	inconclusive: 35.5 µM [inhibitor, single point]
COc1ccc(-c2cc(C(=O)OCC(=O)c3cccc(OC)c3)c3cccc(Cl)c3n2)cc1	inactive
COc1ccc(NC(=O)C2CCN(c3nc(-c4ccc(OC)c(OC)c4)no3)CC2)cc1Cl	inactive
CCc1nc2ccc(C(=O)N(C)Cc3ccccc3)cn2c1N(CC)Cc1cccc(Br)c1	inconclusive: 15.8 µM [inhibitor, single point]

Compound	Potency
Cc1cc(OCC(=O)NNC(=S)NC(=O)c2ccc(Br)o2)ccc1Cl	inactive
Cc1ccc(S(=O)(=O)N2CCN(C(=O)CCc3c[nH]c4ccccc34)CC2)c(C)c1	inconclusive: 15.8 µM [inhibitor, single point]
Cc1ccccc1CNC(=O)C1CCCN(c2nnc(-n3c(C)ccc3C)s2)C1 (stereo not drawn)	inconclusive: 17.8 µM [inhibitor, single point]
COc1ccc(NC(=O)CN(c2ccc(F)cc2)S(=O)(=O)c2ccccc2)c(OC)c1	inactive
CCCc1nnc(NC(=O)CCC(=O)N2CCC(Cc3ccccc3)CC2)s1	inactive
Cc1ccc(OCc2cc(C(=O)N3CCc4[nH]cnc4C3c3ccccn3)no2)cc1C (stereo not drawn)	inactive
CCn1c2ccccc2c2cc(/C=N/O)ccc21	inconclusive: 22.4 µM [inhibitor, partial curve, poor fit]
COCCn1c(=NC(=O)c2ccco2)sc2cc(C(=O)OC)ccc21	inconclusive: 35.5 µM [inhibitor, single point]
COc1ccc(CCC(=O)NCc2nc3cccnc3n2Cc2ccc(OC)cc2)cc1	inactive
CCOC(=O)c1c(NC(=O)CS(=O)(=O)c2ccc(Cl)cc2)sc2c1CCCC2	inconclusive: 22.4 µM [inhibitor, single point]
COc1ccc(C(CCNC(C)c2ccccc2)C(C)C)cc1 (stereo not drawn)	inconclusive: 35.5 µM [inhibitor, single point]
Oc1nc(Nc2cccc(Cl)c2)sc1/C=C1\C=Nc2ccccc21	inconclusive: 35.5 µM [inhibitor, single point]
COc1ccc(CCC(=O)Nc2ccc3c(c2)OCO3)cc1OC	inactive
Fc1ccc(-c2noc3ncnc(N4CCCCC4)c23)cc1	inconclusive: 8.91 µM [inhibitor, partial curve, poor fit]
CCOC(=O)C1(Cc2cccc(OC)c2)CCCN(Cc2nccn2CC)C1 (stereo not drawn)	inactive
Cc1ccc(S(=O)(=O)N2CCC(C(=O)OCC(=O)N(C)C3CCS(=O)(=O)C3)CC2)cc1C (stereo not drawn)	inactive
COc1cccc(CN2CCN(C(=O)c3ccc(-c4ccccc4)cc3)CC2)c1	inconclusive: 12.6 µM [inhibitor, partial curve, poor fit]
COC(=O)[C@@H]1Cc2c([nH]c3ccccc23)C(C)(C)N1C(=O)CCl	inconclusive: 11.2 µM [inhibitor, partial curve, poor fit]
CCOC(=O)C[C@@H](C#N)NC(=O)[C@@H]1CCCN1C(=O)[C@@H](NC(=O)c1ccc(N)c(Cl)c1)C(C)(C)C	inconclusive: 10 µM [inhibitor, partial curve, poor fit]
COc1ccc(-c2nc(SCC(=O)Nc3cccc(C(C)=O)c3)n[nH]2)cc1	inconclusive: 28.2 µM [inhibitor, single point]
Cc1ccc(C)c(S(=O)(=O)/N=C2\C=C(NS(=O)(=O)c3ccccc3)C(=O)c3ccccc32)c1	inconclusive: 35.5 µM [inhibitor, single point]

— PubChem BioAssay AID588855 (National Center for Advancing Translational Sciences (NCATS), 2011)
